This is an account of results in PMC8691596.

In this experiment the target is human FcγRI (CD64), histidine-tagged recombinant (human) (UniProt P12314). Description: SPR; His-tagged Fc receptor captured by anti-histidine antibody immobilised on CM5; antibody injected at 100 μg/mL for 1 min; response about 5 s before end of injection, blank subtracted; 25°C, HBS-EP+; Biacore T200.

The source holds more than one record for some entries. They are shown here; other results are not. An entry can have further records. Results that share an entry seem to repeat one measurement; one of them may be the mean.

Sequence of UniProt P12314 (P12314 16-292): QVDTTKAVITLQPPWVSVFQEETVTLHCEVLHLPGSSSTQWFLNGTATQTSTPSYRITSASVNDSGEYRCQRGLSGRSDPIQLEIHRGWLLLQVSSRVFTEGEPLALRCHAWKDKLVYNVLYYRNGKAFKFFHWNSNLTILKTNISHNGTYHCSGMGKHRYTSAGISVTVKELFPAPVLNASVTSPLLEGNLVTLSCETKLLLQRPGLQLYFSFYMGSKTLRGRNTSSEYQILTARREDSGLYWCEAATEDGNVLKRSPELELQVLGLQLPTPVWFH

Take “anti-CD20 IgG1 L234G/L235S/G236R (antibody)”: the response is -0.1 RU, 2.7 RU, 3.1 RU [columns of one line].
On to “anti-CD20 IgG1 L234S/L235T/G236R (antibody)”, for which the response is -0.5 RU, 0.3 RU, 1.9 RU [columns of one line].
